The supplement of paper PMC11417369
This is one part of the list.

test system: PF3D7_0420300 AP2 domain 1 (GST-tagged); experiment: gcPBM binding intensity (ln(normalized median fluorescence intensity)); higher = stronger DNA binding
Procedure, shortened: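 Alexa488 anti-GST antibody, scanned at 488 nm, detected GST-tagged P. falciparum DNA-binding domains that had been expressed in E. coli and incubated for 1 h on an Agilent 4 × 180k array. The array carried primer-extended double-stranded 36-bp intergenic genomic probes and negative controls. Binding intensity is the highest Masliner-normalised natural-log median intensity across replicate spots of either orientation of each probe.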

Sequence	gcPBM binding intensity (ln)
CATATACATAGACACACACACACATAAATAAATATA [CACACA_site6749]	10.1
ATTTGTATATATAATTGTACGCATATTCTATACGAT [XGTACX_site7367]	9.22
ATACTTTATAAATACTAAAGTGTATTTTGTAATATA [CACACA_negctrl_site1710]	9.1
TGTAGAAGAACCCATGCATGCAGTATGAAAAAAAAA [TGCATGCA_site907]	9.19
AAAAAAAGAAAAAAACGTACATGAAAATTTTTTGTT [XGTACX_site5135]	9.42
ATAAATCCCAAAACCTTGCAAGACAACGTTTGATCA [CACACA_negctrl_site1327]	9.17
CTATATAAAAAAATTGCACACATAAATATATACATA [CACACA_site8325]	9.62
TTCTAAAATTATATAGTGCAATTATTTTATTTTTCT	9.17
AAAAAAATAAAACACATACATATATGTATATATATA [GTGCAC_negctrl_site390]	9.47
TAAATATATATATAAGTGCATTATATATATATATAA	9
ATATGATAGTTTATATGTACATAAATAAATACATAC [XGTACX_site2917]	9.34
ATCTCTTACATATTCACACACATATAAATAACTACA [CACACA_site6816]	9.73
ATTAATAATTATTATGGTACACATGTAACTACTCTC [XGTACX_site198]	9.21
AAAGAAAAAAAATAATGTACATATGTATTTGAGAAA [XGTACX_site3571]	9.41
TATATTATAATATTCACACACTAACGTAAATCATTG [CACACA_site7318]	9.42
TGGCAAAATAGGCACACACACATATACAGATATATT [CACACA_site4727]	9.9
TCAATGAAATTAATATGTACATATTTTTATATAGTA [XGTACX_site7955]	9.07
AAAAAATATATATATATATATATGTAATATTTTTTT [XGTACX_negctrl_site439]	9.07
AAAACTATAAAAATTTTACACACTGTTTTTAAATAA [CACACA_site3667]	9.17
TGATCAAGTAAGAAAAGTACAAAAAAAGTAAAAAAT [XGTACX_site6529]	9.4

Sequence	gcPBM binding intensity (ln)
GTTCTTTCAAATTATACACACCAAAAAAAAAAAAAA [CACACA_site5660]	9.18
GCGTGTGTACAATGAGTGCATATCTAAAGGGAAGAT	9.77
ATAAGTTTTTATTTTCTGCACTGTCGAATAATAGTT	9.27
GATATGTTTTATTATGTTGATGATAACAGGTAGTTT [CACACA_negctrl_site356]	9.35
AAAAAAAACATACATACACACACATAAATATATATA [CACACA_site8864]	10.3
ATGGATTATTTTTAAACATGCAGTAGTGATGAAAAA [TGCATGCA_site346]	9.18
TGTTCAGTATGGCACACACACAACAAAATAAAAAAA [CACACA_site4368]	9.61
GGTTTACCCTATAAATGTACTCATAAATTATATATA [XGTACX_site5771]	9.2
ATACGAAATAGAAACACACATACAATAAATAAATAT [CACACA_site2017]	9.99
TTTTTTTTTTTTTTTTGTACATATACATATATATAT [XGTACX_site1981]	8.98
AGTAGCAAATATTAAGTGCATATTATATAATGTGTA [GTGCAC_site9546]	9.32
ATAAATATGGCAGTACGTACGTATATTCATATTCAT [XGTACX_site8042]	9.37
ATTAAAAAAAAAAAAAAAAAACAAAAAAAAAAAAAA [CACACA_negctrl_site1187]	8.45
TATATAAACATCGGTAGTACACACATTCATGTATTT [XGTACX_site6443]	9.6
GGATCATTTTTAAAGGAACACACAAAAAAAATTATA [CACACA_site8381]	9.2
ATGATATGGATAAATACACACAATATAATAATGGGT [CACACA_site4905]	9.86
AAAAAAAACAGACACACACACATTCAATATAAAACA [CACACA_site41]	10.2
ATATCTTATATTATCACACACACACCCACAAAACAG [CACACA_site1464]	10
ATATGTATAAATATAAATATATATATATATATATAT [CACACA_negctrl_site705]	9.15
ATTTTATATATGTGTTGTACGGTGAACATTTTGATA [XGTACX_site6538]	9.44

Sequence	gcPBM binding intensity (ln)
ACGTTAATATCTACAAGTACCCACATTAACAGGAAA [XGTACX_site2616]	9.31
TGCGGAAATAAGTGCACACATAGATATATGTATTTT [CACACA_site3689]	9.44
ATCTATATCTATAATACACACATCATAAAATATGTA [CACACA_site7230]	9.5
ATATTATATATGTATAGTACATATTATAAGAAAAAT [XGTACX_site3457]	9.27
ATATATATTAATAATGCATGTGATATAAATTAATAT [TGCATGCA_site930]	9.3
CGGCACATTCTATATACACACATATAAATATATACA [CACACA_site566]	9.56
TACAATTCGTAATACACACACATATAAATAAATATT [CACACA_site7720]	9.77
ATATAAAATATGTATGAGGAATAAAATTAAAAAAAA [XGTACX_negctrl_site173]	9.36
TTTTTTTTGAAGAATACATGCATATTTTCTATATTC [TGCATGCA_site43]	9.15
ATAAAAAAAGATGAACGTACATATATTTTAAAAATC [XGTACX_site5950]	9.32
AATATACAAATAAAGGTGCGAGATATTTTTACTTTT	9.41
ACAATATGCAAAAAGTGTACACATTCATTTATATAA [XGTACX_site1061]	9.29
TATTAAATATATATTACATGCAAAAAAAAAAAACAA [TGCATGCA_site705]	9.32
GTAAATATTTGTTGGGTGCTATCAATTATTTCAAAG	9.37
TGTGTATATTATATGTGTACATATCAATGTTTATAT [XGTACX_site1885]	9.47
TAATATTAAATAAATAAAATATATAATATATATATA [XGTACX_negctrl_site49]	8.96
TAATATATAACGTGCACACACACATCTACGTATGAA [CACACA_site5080]	9.89
TGGCATTAAAATTTAGTGCATATATCTTAGCATGGG	8.96
